Data as given in PMC9918489.
Results are given in words; binding and its absence hold for the method and conditions named. In cells and extracts the contact can be indirect. Some entries that bind do so weakly or less than the wild type.

Sequences of proteins named here, by UniProt entry; tags and fusion partners are left off. A change or cut given only in a name is not applied to a line headed by its entry. A line that says so, or that is headed by a name, gives the form on record, which may keep a tag or linker. Residues count along the entry.
UniProt Q96LR5: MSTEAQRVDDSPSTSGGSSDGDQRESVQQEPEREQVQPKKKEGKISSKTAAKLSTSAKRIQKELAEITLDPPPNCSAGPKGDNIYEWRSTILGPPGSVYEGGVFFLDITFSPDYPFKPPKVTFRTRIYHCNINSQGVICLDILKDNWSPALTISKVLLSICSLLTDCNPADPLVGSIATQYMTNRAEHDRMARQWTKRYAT
Flag-tagged N-terminal of UBE2E2 (C-terminal-truncated mutant Δ53-201, residues 1-52): residues 1-52 of Q96LR5
UniProt O95863: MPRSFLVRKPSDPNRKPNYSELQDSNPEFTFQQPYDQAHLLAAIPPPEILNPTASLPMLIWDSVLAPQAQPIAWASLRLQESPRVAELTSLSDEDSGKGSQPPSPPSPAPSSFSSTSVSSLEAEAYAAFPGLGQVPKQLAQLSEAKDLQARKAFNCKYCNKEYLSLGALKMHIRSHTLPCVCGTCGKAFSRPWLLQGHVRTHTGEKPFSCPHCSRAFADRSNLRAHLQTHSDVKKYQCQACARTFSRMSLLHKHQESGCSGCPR

How the values were obtained:
[1] = target: Flag-tagged UBE2E2 (wild type) (human) (UniProt Q96LR5); assay: co-IP; Flag-tagged protein IP kit with magnetic beads; A2780 cells transfected with Flag-tagged UBE2E2 or Flag-tagged p62 vectors; immunoblot of the precipitate (Fig. 4E, F)
[2] = target: Flag-tagged UBE2E2 C139A mutant (human) (UniProt Q96LR5); assay: co-IP; Flag-tagged protein IP kit with magnetic beads; SKOV3 and A2780 cells transfected with Flag-tagged WT or mutant UBE2E2; immunoblot for Nrf2 (Fig. 5H, 6E)
[3] = target: Flag-tagged UBE2E2 (wild type) (human) (UniProt Q96LR5); assay: as above
[4] = target: Flag-tagged N-terminal of UBE2E2 (C-terminal-truncated mutant Δ53-201, residues 1-52) (human) (UniProt Q96LR5); assay: as above

In the case of “Snail (zinc finger protein SNAI1) (from UniProt O95863 1-264)”, the binding [1] is reported as “no binding”.

For “p62 (sequestosome 1) (from UniProt Q13501 1-440)”, the binding [1] was “no binding”.

B1: Nrf2 (nuclear factor-erythroid-2 related factor-2) (protein, UniProt Q16236 1-605)
chain: MMDLELPPPGLPSQQDMDLIDILWRQDIDLGVSREVFDFSQRRKEYELEKQKKLEKERQEQLQKEQEKAFFAQLQLDEETGEFLPIQPAQHIQSETSGSANYSQVAHIPKSDALYFDDCMQLLAQTFPFVDDNEVSSATFQSLVPDIPGHIESPVFIATNQAQSPETSVAQVAPVDLDGMQQDIEQVWEELLSIPELQCLNIENDKLVETTMVPSPEAKLTEVDNYHFYSSIPSMEKEVGNCSPHFLNAFEDSFSSILSTEDPNQLTVNSLNSDATVNTDFGDEFYSAFIAEPSISNSMPSPATLSHSLSELLNGPIDVSDLSLCKAFNQNHPESTAEFNDSDSGISLNTSPSVASPEHSVESSSYGDTLLGLSDSEVEELDSAPGSVKQNGPKTPVHSSGDMVQPLSPSQGQSTHVHDAQCENTPEKELPVSPGHRKTPFTKDKHSSRLEAHLTRDELRAKALHIPFPVEKIINLPVVDFNEMMSKEQFNEAQLALIRDIRRRGKNKVAAQNCRKRKLENIVELEQDLDHLKDEKEKLLKEKGENDKSLHLLKKQLSTLYLEVFSMLRDEDGKPYSPSEYSLQQTRDGNVFLVPKSKKPDVKKN
In the case of B1, the binding [2] is reported as “binds”, the binding [3] is reported as “binds” and the binding [4] is reported as “binds”.
